Assay results as given in the supplement of paper PMC8728848.
This is one part of the list.

Assays:
Assay in all cases: glycan array binding signal (z-score within array); higher = stronger binding
Conditions in all cases: glycan notation: IUPAC condensed, linker removed
[1] = target: Fuc(a1-3)[Gal(b1-4)]GlcNAc(b1-2)Man(a1-6)[Gal(b1-4)GlcNAc(b1-2)Man(a1-3)]Man(b1-4)GlcNAc(b1-4)GlcNAc
Summary of the method: (§1)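 Columns mapping to the same glycan were averaged after glycan names were converted to IUPAC-condensed notation. The data come from 3228 arrays in the Consortium for Functional Glycomics database, limited to those with an available protein sequence. Binding is reported as a within-array Z-score averaged across arrays of one protein sequence and across linkers.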

[2] = target: Fuc(a1-3)[Gal(b1-4)]GlcNAc(b1-3)Gal(b1-3)[Fuc(a1-4)]GlcNAc
Summary of the method: as §1

[3] = target: Fuc(a1-3)[Gal(b1-4)]GlcNAc(b1-4)Gal(b1-4)[Fuc(a1-3)]GlcNAc
Summary of the method: as §1

[4] = target: Fuc(a1-3)[Gal(b1-4)]GlcNAc(b1-4)Gal(b1-4)[Fuc(a1-3)]GlcNAc(b1-4)Gal(b1-4)[Fuc(a1-3)]GlcNAc
Summary of the method: as §1

[5] = target: Fuc(a1-3)[Gal(b1-4)]GlcNAc6S
Summary of the method: as §1

[6] = target: Fuc(a1-3)[Gal3S(b1-4)]Glc6S
Summary of the method: as §1

[7] = target: Fuc(a1-3)[Gal3S(b1-4)]GlcNAc
Summary of the method: as §1

[8] = target: Fuc(a1-3)[Gal3S(b1-4)]GlcNAc6S
Summary of the method: as §1

[9] = target: Fuc(a1-3)[GalNAc(b1-4)]GlcNAc
Summary of the method: as §1

[10] = target: Fuc(a1-4)GlcNAc
Summary of the method: as §1

[11] = target: Fuc(b1-3)GlcNAc
Summary of the method: as §1

[12] = target: Gal(a1-2)Gal
Summary of the method: as §1

[13] = target: Gal(a1-3)Gal
Summary of the method: as §1

[14] = target: Gal(a1-3)Gal(b1-3)GlcNAc
Summary of the method: as §1

[15] = target: Gal(a1-3)Gal(b1-4)Glc
Summary of the method: as §1

[16] = target: Gal(a1-3)Gal(b1-4)GlcNAc
Summary of the method: as §1

[17] = target: Gal(a1-3)Gal(b1-4)[Fuc(a1-3)]GlcNAc
Summary of the method: as §1

[18] = target: Gal(a1-3)GalNAc
Summary of the method: as §1

[19] = target: Gal(a1-3)[Gal(a1-4)]Gal(b1-4)GlcNAc
Summary of the method: as §1

[20] = target: Gal(a1-4)Gal(b1-4)Glc
Summary of the method: as §1

[21] = target: Gal(a1-4)Gal(b1-4)GlcNAc
Summary of the method: as §1

[22] = target: Gal(a1-4)GlcNAc
Summary of the method: as §1

[23] = target: Gal(a1-6)Glc
Summary of the method: as §1

[24] = target: Gal(b1-2)Gal
Summary of the method: as §1

[25] = target: Gal(b1-3)Gal
Summary of the method: as §1

[26] = target: Gal(b1-3)Gal(b1-4)GlcNAc
Summary of the method: as §1

[27] = target: Gal(b1-3)GalNAc
Summary of the method: as §1

[28] = target: Gal(b1-3)GalNAc(b1-3)Gal(a1-4)Gal(b1-4)Glc
Summary of the method: as §1

[29] = target: Gal(b1-3)GalNAc(b1-4)Gal(b1-4)Glc
Summary of the method: as §1

[30] = target: Gal(b1-3)GalNAc(b1-4)[Neu5Ac(a2-3)]Gal(b1-4)Glc
Summary of the method: as §1

[31] = target: Gal(b1-3)GlcNAc
Summary of the method: as §1

[32] = target: Gal(b1-3)GlcNAc(b1-2)Man(a1-3)[Gal(b1-3)GlcNAc(b1-2)Man(a1-6)]Man(b1-4)GlcNAc(b1-4)GlcNAc
Summary of the method: as §1

[33] = target: Gal(b1-3)GlcNAc(b1-3)Gal(b1-3)GlcNAc
Summary of the method: as §1

[34] = target: Gal(b1-3)GlcNAc(b1-3)Gal(b1-4)Glc
Summary of the method: as §1

[35] = target: Gal(b1-3)GlcNAc(b1-3)Gal(b1-4)GlcNAc
Summary of the method: as §1

[36] = target: Gal(b1-3)[Fuc(a1-4)]GlcNAc
Summary of the method: as §1

[37] = target: Gal(b1-3)[Fuc(a1-4)]GlcNAc(b1-3)Gal(b1-3)[Fuc(a1-4)]GlcNAc
Summary of the method: as §1

[38] = target: Gal(b1-3)[Fuc(a1-4)]GlcNAc(b1-3)Gal(b1-4)GlcNAc
Summary of the method: as §1

B1: Ficolin A (Rattus norvegicus), Q9WTS8 (protein)
chain: MWWPMLWAFPVLLCLCSSQALGQESGACPDVKIVGLGAQDKVAVIQSCPSFPGPPGPKGEPGSPAGRGERGLQGSPGKMGPPGSKGEPGTMGPPGVKGEKGERGTASPLGQKELGDALCRRGPRSCKDLLTRGIFLTGWYTIYLPDCRPLTVLCDMDVDGGGWTVFQRRVDGSINFYRDWDSYKRGFGNLGTEFWLGNDYLHLLTANGNQELRVDLREFQGQTSFAKYSSFQVSGEQEKYKLTLGQFLEGTAGDSLTKHNNMAFSTHDQDNDTNGGKNCAALFHGAWWYHDCHQSNLNGRYLPGSHESYADGINWLSGRGHRYSYKVAEMKIRAS
What does the source list for B1?
glycan array binding signal (z-score) [1]: -0.091; glycan array binding signal (z-score) [2]: -0.092; glycan array binding signal (z-score) [3]: -0.105; glycan array binding signal (z-score) [4]: -0.05; glycan array binding signal (z-score) [5]: -0.043; glycan array binding signal (z-score) [6]: -0.093; glycan array binding signal (z-score) [7]: -0.043; glycan array binding signal (z-score) [8]: -0.107; glycan array binding signal (z-score) [9]: -0.106; glycan array binding signal (z-score) [10]: -0.098; glycan array binding signal (z-score) [11]: -0.058; glycan array binding signal (z-score) [12]: -0.077; glycan array binding signal (z-score) [13]: -0.039; glycan array binding signal (z-score) [14]: -0.094; glycan array binding signal (z-score) [15]: -0.071; glycan array binding signal (z-score) [16]: -0.059; glycan array binding signal (z-score) [17]: -0.105; glycan array binding signal (z-score) [18]: -0.094; glycan array binding signal (z-score) [19]: -0.082; glycan array binding signal (z-score) [20]: -0.092; glycan array binding signal (z-score) [21]: -0.084; glycan array binding signal (z-score) [22]: -0.12; glycan array binding signal (z-score) [23]: -0.065; glycan array binding signal (z-score) [24]: -0.012; glycan array binding signal (z-score) [25]: -0.09; glycan array binding signal (z-score) [26]: -0.034; glycan array binding signal (z-score) [27]: -0.063; glycan array binding signal (z-score) [28]: -0.1; glycan array binding signal (z-score) [29]: -0.049; glycan array binding signal (z-score) [30]: -0.075; glycan array binding signal (z-score) [31]: -0.008; glycan array binding signal (z-score) [32]: -0.109; glycan array binding signal (z-score) [33]: -0.083; glycan array binding signal (z-score) [34]: -0.058; glycan array binding signal (z-score) [35]: -0.064; glycan array binding signal (z-score) [36]: -0.069; glycan array binding signal (z-score) [37]: -0.085; glycan array binding signal (z-score) [38]: -0.073
